In PubChem BioAssay AID485297 (National Center for Advancing Translational Sciences (NCATS), 2010):
Among all 320,000 compounds or so, about 9,100 (2.8%) were called active. The shares of active, inactive and inconclusive entries below differ from those in the screen. Calls follow the shape of the dose curve; as a rule, active = well fitted activation curve with a large enough effect; inconclusive = small, poorly fitted or top-dose-only effect; inactive = no such curve, though single readings can be large or run the other way. A potency beside an inconclusive call is a rough fit, not a confirmed value.

experiment: qHTS Assay for Rab9 Promoter Activators; settings: Huh7 Rab9 promoter-luciferase reporter, luminescence, 24 h; series mostly up to 9.22 µM; activation, negative = inhibition: at the top concentration; also: nearly all actives have a fitted effect of over 60% in size; as to activation, negative = inhibition: % of control where 0% means no effect
Procedure, shortened: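 Luciferase signal after 10 min detection reagent at ambient indicates Rab9 promoter upregulation; stably transfected Huh7 cells were treated 24 h with compound in DMSO at 37 °C, 5% CO2.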
Potency is read from the fitted curve at half-maximal effect; tags tell the direction and shape of the fitted curve.

activation, negative = inhibition, inactive:
CCC(/C=C1\Sc2ccc(OC)cc2N1CCO)=C\c1sc2ccc(OC)cc2[n+]1CCO -9.36%
COCCCNC(=O)C1CCC(CNS(=O)(=O)c2ccc(C)cc2)CC1 (configuration not stated) 4.46%
CCCCCC(=O)N1CCN(S(=O)(=O)c2ccc3c(c2)OCCO3)CC1 1.1%
COc1ccc(N2C(=NC(=O)C3CC3)SC3CS(=O)(=O)CC32)cc1Cl (configuration not stated) -0.625%
O=C(Cc1ccsc1)NNC(=O)c1ccccc1O 12.5%
COc1ccc(-c2cc(C(=O)c3c(N)n(C)c(=O)n(C)c3=O)c3ccccc3n2)cc1OC 24.3%
Cc1cccc(C(=O)NNC(=O)C2CC2)c1 16.7%
CCC(CC)C(=O)Nc1cccc(C(=O)NCCc2ccccc2)c1 4.11%
O=C(NC12CC3CC(CC(C3)C1)C2)C1CC(=O)N(c2ccc(Br)cc2)C1 (configuration not stated) 3.36%
COc1ccc2cc3c(N)nn(C(=O)c4ccc(Cl)c([N+](=O)[O-])c4)c3nc2c1 0.206%
CCn1cc(C(=O)NCCCOC)c(=O)c2cc(S(=O)(=O)N(C)C3CCCCC3)ccc21 -4.8%
CC(=O)c1cccc(NC(=O)c2cc(-c3ccncc3)nc3ccccc23)c1 -4.63%
C=CCn1c(SCc2ccc(C(=O)Nc3ccccc3)cc2)nnc1-c1ccccc1 9.79%
COc1cccc(C(=O)N/N=C(\C)CC(=O)Nc2ccc(N(C)C)cc2)c1 -2.01%
Cc1ccc(C(=O)NNC(=O)c2cc(C)nc3ccccc23)cc1 2.61%
CC(C)(CO)C(O)C(=O)NCCCO (configuration not stated) 0.286%
O=C(Nc1ccccc1NC(=O)c1ccc(F)cc1)c1ccc(F)cc1 -2.77%
O=C(NNC(=O)c1ccc2ccccc2c1O)c1cccs1 15%
Cc1nn(C(C)C(=O)NCCCc2ccccc2)c(=O)c2cc3occc3n12 (configuration not stated) -0.888%

Potency, active:
COC(=O)C1C(=O)c2c([nH]c(C(=O)OC3CCCCC3)c2C)CC1C (configuration not stated) 2.82 µM
Cc1cc(C(=O)Nc2ccc3ccccc3c2)c(C)o1 3.55 µM
O=C(Nc1ccc2c(c1)OCO2)C(=O)c1c[nH]c2ccccc12 0.708 µM
O=C(c1ccccc1)c1cnc(-c2ccccc2)s1 0.316 µM
COC(=O)c1ccc2nc(-c3ccc4c(c3)OCO4)cn2c1 0.1 µM
N/C(=N\OC(=O)/C=C/c1ccccc1)c1ccccn1 2.51 µM
O=C(N/N=C/c1cccc(F)c1)c1c(O)c2c([nH]c1=O)CCCC2 2 µM
Cc1cc(NC(=O)NC(=O)c2ccccc2)no1 2.51 µM
COc1ccc(-n2nc3cc(C)c(N)cc3n2)cc1Cl 2.82 µM
Cc1csc(NC(=O)c2ccc3c(=O)n4c(nc3c2)CCCCC4)n1 1.12 µM
COc1ccc(-c2coc3cc(OC4OC(CO)C(O)C(O)C4O)ccc3c2=O)cc1 (configuration not stated) 1.58 µM
Cn1cccc1/C=C1\CCc2ccccc2C1=O 0.126 µM
Cc1ccc(C(=O)NCCc2ccc(F)cc2)s1 2.82 µM

Potency, inconclusive:
COc1ccc(OC)c2c1sc(=NC(=O)C1COc3ccccc3O1)n2C (configuration not stated) 3.55 µM [activator, partial curve]
COC(=O)Cc1ccc(OCc2ccc(Cl)nc2)cc1 3.98 µM [activator, partial curve]
COc1cc(CNc2ncn[nH]2)ccc1OCc1cccc(C)c1 1.58 µM [activator, partial curve]
COc1cc(OC)cc(C(=O)NCC(=O)OCc2nc3ccccc3s2)c1 6.31 µM [activator, single point]
Cc1ccc(COc2coc(CO)cc2=O)cc1 2.51 µM [activator, partial curve]
c1cncc(-c2nc3c(ccc4ccccc43)[nH]2)c1 2.82 µM [activator, partial curve]
NC(=O)c1c(NC(=O)c2ccccc2)sc2c1CCCC2 5.01 µM [activator, single point]
COc1cccc(Oc2nccc(N(C)C)c2C#N)c1 3.16 µM [activator, partial curve]
Oc1ccc(-c2cnc(-c3ccc(O)cc3)nc2)cc1 4.47 µM [activator, single point]
O=C(Nc1cccc(-c2cn3cccnc3n2)c1)Nc1ccccc1F 3.55 µM [activator, single point]
COc1cccc2c1C(=O)O/C2=C/c1ccc2c(c1)OCO2 5.62 µM [activator, single point]
Cn1c(C(=O)N2CCc3ccccc3C2)cc2oc3ccccc3c21 2.82 µM [activator, partial curve]
O=C(CN1C(=O)c2ccccc2S1(=O)=O)c1ccccc1F 0.282 µM [activator, full curve]
CCC(=O)Nc1nnc(/C=C/c2ccccc2)s1 3.16 µM [activator, single point]
COCc1nnc(NC(=O)c2cc3ccccc3o2)s1 3.55 µM [activator, partial curve]
O=C(Nc1ccc(F)c(F)c1)NC1CCCCC1 2.51 µM [activator, partial curve]
Cc1cc(C)n(-c2ccc(C(=O)Nc3sccc3C(N)=O)cc2)n1 1.58 µM [activator, single point]
Cn1cnnc1SCC(=O)Nc1nc(-c2ccccc2)cs1 1.26 µM [activator, single point]
COc1cccc(/C=N/Nc2nnc3c(n2)[nH]c2ccccc23)c1OC 2.51 µM [activator, partial curve]
Cn1c(=O)c(C(=O)NC2CCCCCCC2)c(O)c2ccccc21 3.55 µM [activator, partial curve]
CC1(c2ccc([N+](=O)[O-])cc2)Nc2ccccc2S1 (configuration not stated) 3.98 µM [activator, single point]
COc1ccc(Cl)cc1-c1nc(-c2ccc(Br)o2)no1 3.98 µM [activator, partial curve]
COc1ccc(-c2cn3cccnc3n2)cc1 5.01 µM [activator, single point]
CC(C)Cc1cc(C(=O)Nc2ccc(Br)cc2)no1 5.62 µM [activator, single point]
CN1CCN(c2ccc(NC(=O)Cc3ccccc3)cc2)CC1 2.51 µM [activator, partial curve]
C=C(C)COc1ccc2c(C)c(CC(=O)OC)c(=O)oc2c1C 3.55 µM [activator, partial curve]
O=C(CSc1ccccc1F)Nc1ccc(N2CCOCC2)cc1 3.55 µM [activator, partial curve]
Cc1cccc(NC(=O)Nc2cccc(C)n2)n1 3.16 µM [activator, partial curve]
CCn1nccc1C(=O)Nc1ccc(C(=O)OC(C)C)cc1 2.82 µM [activator, partial curve]
O=C(NCCCN1CCOCC1)c1sc2cc(F)ccc2c1Cl 5.62 µM [activator, single point]
CCc1ccc(NC(=O)c2noc3c2CCc2ccccc2-3)cc1 3.98 µM [activator, partial curve, poor fit]
CCC(=O)NCCc1nc2cc(NC(=O)c3ccc(OC)cc3)ccc2n1C 3.16 µM [activator, partial curve]
O=C(NCCOc1ccccc1)c1cncc(Br)c1 3.16 µM [activator, single point]
Cc1cccc(NC(=O)c2cccs2)n1 4.47 µM [activator, partial curve]
O=C(NC(=S)NC1CCCC1)c1ccccc1 5.62 µM [activator, single point]
COc1ccc(-c2noc(N3CCCC(C(=O)Nc4ccc(F)cc4F)C3)n2)cc1 (configuration not stated) 3.55 µM [activator, partial curve]
COCCC1CCCCN1C(=O)c1cc(COc2cccc(C(C)=O)c2)on1 (configuration not stated) 2.24 µM [activator, partial curve]
O=c1c2ccccc2[nH]c(=S)n1CCc1ccccc1 5.62 µM [activator, single point]
O=C(NCC1CC1)c1ccc2c3n(nc2c1)-c1ccccc1CO3 0.316 µM [activator, full curve, poor fit]
Cc1ccc(S(=O)(=O)CCC(=O)N(CCCN2CCOCC2)c2nc3ccccc3s2)cc1 5.62 µM [activator, single point]
CCCCOc1ccc(-c2cc(C(=O)NNC(=S)NCC)c3ccccc3n2)cc1 0.398 µM [activator, partial curve]
CC(C)(C)c1ccc(S(=O)(=O)CCc2ccccn2)cc1 5.01 µM [activator, single point]
C=CCOC(=O)N1CCN(c2cccc(C(F)(F)F)c2)CC1 5.01 µM [activator, partial curve]
CC1CCN(c2ccc(NC(=S)NC(=O)c3ccco3)cc2)CC1 5.62 µM [activator, partial curve]
CCn1nccc1C(=O)Nc1ccc(Cl)c(Cl)c1 2.82 µM [activator, partial curve]
